Variants at the floor of the assay are shown more often than the library holds them.
B1: TPR 5TU (parent)
chain: GGAUCUUCUCGAUCUAACAAAAAAGACAAAUCUGCCACAAAGCUUGAGAGCAUCUUCGGAUGCAGAGGCGGCAGCCUUCGGUGGCGCGAUAGCGCCAACGUUCUCAACUAUGACACGCAAAACGCGUGCUCCGUUGAAUGGAGUUUAUCAUG

Variants of: B1
Test: polymerase ribozyme fitness, log enrichment relative to wild type (log ratio); higher = more active; in vitro selection for triplet polymerase activity
How it was run: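 Fitness compares each genotype's enrichment to that of the wild type on a logarithmic scale, averaging replicates with inverse-variance weights. The logarithm is base 2. Enrichment came from Illumina sequencing of input and output libraries after one triplicate round of in vitro selection, which included frozen incubation at −7 °C, of PCR-built, transcribed mutant libraries of each subunit of a heterodimeric triplet polymerase ribozyme. Only genotypes with ≥10 input reads and ≥1 read per output were kept.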

Row | Variant | polymerase ribozyme fitness (log ratio)
1 | GGAUCUUCUCGAUCUAACAAAAAAGACAAAUCUGCCACAAAGCUUGAGAGCAUCUUCGGAUGCAGAGGCGGCAGCCUUCGGUGGCGCGAUAGCGCCAACGUUCUCAACUAUGAUACGCAAAACGCGUGCUCCGUUGAAUGCAGUUUAUCAUG | -3.4
2 | GGAUCUUCUCGAUCUAACAAAAAAGACAAAUCUGCCACAAAGCUUGAGAGCAUCUUCGGAUGCAGAGGCGGCAGCCUUCGGUGGCGCGAUAGCGCCAACGUUCUCAACUGUGACACGCAAAACGCGUGCUCCGUUGAAUGGAGUUUAUUAUG | ≤ -4.2
3 | GGAUCUUCUCGAUCUAACAAAAAAGACAAAUCUGCCACAAAGCUUGAGAGCAUCUUCGGAUGCAGAGGCGGCAGCCUUCGGUGGCGCGAUAGCGCCAACGUUCUCAACUAUGACACACAAAACGCGAGCUCCGUUGAAUGGAGUUUAUCAUG | ≤ -4.2
4 | GGAUCUUCUCGAUCUAACAAAAAAGACAAAUCUGCCACAAAGCUUGAGAGCAUCUUCGGAUGCAGAGGCGGCAGCCUUCGGUGGCGCGAUAGCGCCAACGUUCUCAACUAUGACGCGCAAAACACGUGCUCCGUUGAAUGGAGUUUAUCGUG | -4
5 | GGAUCUUCUCGAUCUAACAAAAAAGACAAAUCUGCCACAAAGCUUGAGAGCAUCUUCGGAUGCAGAGGCGGCAGCCUUCGGUGGCGCGAUAGCGCCAACGUUCUCAACUAUGACGAGCAAAACGCGGGCUCCGUUGAAUGGAGUUUAUCAUG | ≤ -4.2
6 | GGAUCUUCUCGAUCUAACAAAAAAGACAAAUCUGCCACAAAGCUUGAGAGCAUCUUCGGAUGCAGAGGCGGCAGCCUUCGGUGGCGCGAUAGCGCCAACGUUCUCAACUAUGACCCGCAAAACGCGCGCUCCGUUGAAUGGAGUUUAUCAUG | -1.1
7 | GGAUCUUCUCGAUCUAACAAAAAAGACAAAUCUGCCACAAAGCUUGAGAGCAUCUUCGGAUGCAGAGGCGGCAGCCUUCGGUGGCGCGAUAGCGCCAACGUUCUCAACUAUGAAACGCAAAACGCGUGCUCCGUUGAAGGGAGUUUAUCAUG | -2.32
8 | GGAUCUUCUCGAUCUAACAAAAAAGACAAAUCUGCCACAAAGCUUGAGAGCAUCUUCGGAUGCAGAGGCGGCAGCCUUCGGUGGCGCGAUAGCGCCAACGUUCUCAACUUUGACACGCAAAACGCGUGCUCCGUUGAAUGGAGUUUAUCCUG | ≤ -4.2
9 | GGAUCUUCUCGAUCUAACAAAAAAGACAAAUCUGCCACAAAGCUUGAGAGCAUCUUCGGAUGCAGAGGCGGCAGCCUUCGGUGGCGCGAUAGCGCCAACGUUCUCAACUAUGACUCGCAAAACGCAUGCUCCGUUGAAUGGAGUUUAUCAUG | -3.35
10 | GGAUCUUCUCGAUCUAACAAAAAAGACAAAUCUGCCACAAAGCUUGAGAGCAUCUUCGGAUGCAGAGGCGGCAGCCUUCGGUGGCGCGAUAGCGCCAACGUUCUCAACUAUGUCACGCAAAACCCGUGCUCCGUUGAAUGGAGUUUAUCAUG | -3.17
11 | GGAUCUUCUCGAUCUAACAAAAAAGACAAAUCUGCCACAAAGCUUGAGAGCAUCUUCGGAUGCAGAGGCGGCAGCCUUCGGUGGCGCGAUAGCGCCAACGUUCUCAACUAUGAUACGCAAAACGUGUGCUCCGUUGAAUGGAGUUUAUCAUG | -3.33
12 | GGAUCUUCUCGAUCUAACAAAAAAGACAAAUCUGCCACAAAGCUUGAGAGCAUCUUCGGAUGCAGAGGCGGCAGCCUUCGGUGGCGCGAUAGCGCCAACGUUCUCAACUAUGACACUCAAAACGCGUGCUCCGUUGGAUGGAGUUUAUCAUG | -1.34
13 | GGAUCUUCUCGAUCUAACAAAAAAGACAAAUCUGCCACAAAGCUUGAGAGCAUCUUCGGAUGCAGAGGCGGCAGCCUUCGGUGGCGCGAUAGCGCCAACGUUCUCAACUGUGACUCGCAAAACGCCUGCUCCGUUGAACGGAGUUUAUCAUG | ≤ -4.2
14 | GGAUCUUCUCGAUCUAACAAAAAAGACAAAUCUGCCACAAAGCUUGAGAGCAUCUUCGGAUGCAGAGGCGGCAGCCUUCGGUGGCGCGAUAGCGCCAACGUUCUCAACUAUGAGACGCAAAACGCGUGCUCCGUUGAAUCUAGUUUAUCAUG | ≤ -4.2
15 | GGAUCUUCUCGAUCUAACAAAAAAGACAAAUCUGCCACAAAGCUUGAGAGCAUCUUCGGAUGCAGAGGCGGCAGCCUUCGGUGGCGCGAUAGCGCCAACGUUCUCAACUUUGACACGCAAAACGCGUGCUCCGUUGAAUGGAGUUUAUUAUG | ≤ -4.2
16 | GGAUCUUCUCGAUCUAACAAAAAAGACAAAUCUGCCACAAAGCUUGAGAGCAUCUUCGGAUGCAGAGGCGGCAGCCUUCGGUGGCGCGAUAGCGCCAACGUUCUCAACUAUGAGACGCAAAACGCGUGCUCCAUUGAAUGGAGUUUAUCAUG | ≤ -4.2
17 | GGAUCUUCUCGAUCUAACAAAAAAGACAAAUCUGCCACAAAGCUUGAGAGCAUCUUCGGAUGCAGAGGCGGCAGCCUUCGGUGGCGCGAUAGCGCCAACGUUCUCAACUAUGACAUGCAAAACGCGUGCUCCGUUGAAUGGAGAUUAUCAUG | -0.259
18 | GGAUCUUCUCGAUCUAACAAAAAAGACAAAUCUGCCACAAAGCUUGAGAGCAUCUUCGGAUGCAGAGGCGGCAGCCUUCGGUGGCGCGAUAGCGCCAACGUUCUCAACUAUGAUACGCUAAACGCGUGCUCCGUUGAAUGGAGUUUAUCAUG | -1.73
19 | GGAUCUUCUCGAUCUAACAAAAAAGACAAAUCUGCCACAAAGCUUGAGAGCAUCUUCGGAUGCAGAGGCGGCAGCCUUCGGUGGCGCGAUAGCGCCAACGUUCUCAACUAUGACCCGCAAAAAGCGUGCUCCGUUGAAUGGAGUUUAUCAUG | -1.17
